# According to the BET-seq Pho4 binding data (Le et al. 2018):
# This is one part of the list. Values were computed here from the reads of four pooled replicates and scatter widely.
# Target: T1, Pho4 (S. cerevisiae) (UniProt P07270)
# T1 sequence: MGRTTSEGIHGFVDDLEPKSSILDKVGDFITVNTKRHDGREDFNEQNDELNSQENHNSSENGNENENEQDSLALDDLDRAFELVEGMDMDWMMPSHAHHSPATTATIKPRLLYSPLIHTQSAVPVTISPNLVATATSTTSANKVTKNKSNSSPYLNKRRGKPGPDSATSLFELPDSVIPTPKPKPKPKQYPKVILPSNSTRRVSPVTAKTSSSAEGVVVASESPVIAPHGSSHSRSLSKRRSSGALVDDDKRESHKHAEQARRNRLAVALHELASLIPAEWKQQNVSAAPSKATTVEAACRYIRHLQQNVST
# Test: relative binding free energy (BET-seq); higher = weaker binding
# Conditions: reference: library average
row,Sequence,relative binding free energy
1,GAAGGCACGTGGAGGA,0.04 kcal/mol
2,GTTAACACGTGTTTGC,-0.04 kcal/mol
3,CAGATCACGTGATGGT,0.35 kcal/mol
4,GTGAGCACGTGATCGG,0.21 kcal/mol
5,TATAACACGTGAGGGC,0.2 kcal/mol
6,AGTTACACGTGAGATT,0.4 kcal/mol
7,AACTACACGTGTAGGT,0.1 kcal/mol
8,TTAGACACGTGTCGGC,0.14 kcal/mol
9,ATTTGCACGTGTATAT,-0.05 kcal/mol
10,TAGAACACGTGTGCGT,0.04 kcal/mol
11,TGCCACACGTGGCGGT,0.17 kcal/mol
12,GGTTGCACGTGAGCAT,0.11 kcal/mol
13,ATTAACACGTGGGTTG,-0.11 kcal/mol
14,CATGCCACGTGTGGTT,-0.08 kcal/mol
15,TGATCCACGTGTTATG,0.09 kcal/mol
16,CGAGTCACGTGGGTAG,0.04 kcal/mol
17,CGGGGCACGTGTCATG,-0.17 kcal/mol
18,GTGGTCACGTGGAAAT,0.11 kcal/mol
19,TGAGGCACGTGATTTT,0.07 kcal/mol
20,TAAGCCACGTGGTTTG,-0.09 kcal/mol
21,CTTAACACGTGGTAGG,-0.05 kcal/mol
22,ATTTGCACGTGCATTG,-0.21 kcal/mol
23,ATGTTCACGTGGTGCA,0.11 kcal/mol
24,TTGAACACGTGGTGTA,-0.1 kcal/mol
25,TTTTTCACGTGCAAAG,0.26 kcal/mol

row,Sequence,relative binding free energy
1,AGTGGCACGTGAAAGC,0.21 kcal/mol
2,GTTCGCACGTGGTGGA,-0.07 kcal/mol
3,AGTTGCACGTGAAAGA,0.15 kcal/mol
4,AGTTCCACGTGGTTAG,0.02 kcal/mol
5,GCTTGCACGTGCGGGT,0.04 kcal/mol
6,GGATACACGTGGTAAG,0.05 kcal/mol
7,ACGTTCACGTGGGCGG,0.11 kcal/mol
8,CTTTGCACGTGAGGCT,0.09 kcal/mol
9,ATACGCACGTGGGGTG,-0.27 kcal/mol
10,TGATCCACGTGGTGTT,-0.05 kcal/mol
11,CAGGTCACGTGGTATT,0.07 kcal/mol
12,TTTTTCACGTGGTATT,0.27 kcal/mol
13,CGTTTCACGTGGGTCT,0.01 kcal/mol
14,TCTGGCACGTGGAAGT,-0.06 kcal/mol
15,TAATTCACGTGATTGG,0.3 kcal/mol
16,GGGGACACGTGGGACT,-0.05 kcal/mol
17,TGCGTCACGTGGGGAT,0.04 kcal/mol
18,TTGGTCACGTGTGGCA,0.16 kcal/mol
19,GCACGCACGTGGGTGG,-0.22 kcal/mol
20,TTTTACACGTGTGTCA,0.09 kcal/mol
21,TTGGACACGTGTGAGG,0.1 kcal/mol
22,ATAATCACGTGTGTGA,0.01 kcal/mol
23,AATTGCACGTGGAAGG,0.03 kcal/mol
24,CAGAGCACGTGTGGTT,-0.11 kcal/mol
25,AGGTGCACGTGATATG,0.15 kcal/mol

row,Sequence,relative binding free energy
1,TATGGCACGTGAAAGG,0.14 kcal/mol
2,GGGGTCACGTGGGTCA,-0.06 kcal/mol
3,TTACTCACGTGGTAGG,0.15 kcal/mol
4,GTTGCCACGTGCGTTT,-0.17 kcal/mol
5,GGGACCACGTGGGAGG,-0.07 kcal/mol
6,AATTTCACGTGATTGG,0.34 kcal/mol
7,CGTTGCACGTGTAGGG,-0.04 kcal/mol
8,GTATGCACGTGTGGGC,0.04 kcal/mol
9,AGTATCACGTGGTGGA,0.18 kcal/mol
10,AGTAGCACGTGCTGGA,-0.04 kcal/mol
11,ATGTTCACGTGGGATC,0.26 kcal/mol
12,CGTGGCACGTGGGCAG,-0.31 kcal/mol
13,AGGTTCACGTGAGTTA,0.37 kcal/mol
14,CGGAACACGTGGTGAG,0.11 kcal/mol
15,AGGCCCACGTGAGGGT,0.15 kcal/mol
16,GTTAACACGTGTGCAT,0.11 kcal/mol
17,GTATTCACGTGGGCTA,0.16 kcal/mol
18,GTTATCACGTGAGTTC,0.26 kcal/mol
19,GTGGGCACGTGGTCAT,-0.12 kcal/mol
20,CTAAACACGTGTGGGT,-0.04 kcal/mol
21,GTAATCACGTGGTAAT,-0.04 kcal/mol
22,TTAATCACGTGGTGCG,0.06 kcal/mol
23,GTAGTCACGTGCAGTG,0.15 kcal/mol
24,GTTGACACGTGCGGTT,0.09 kcal/mol
25,GGCTACACGTGTTGTT,0.17 kcal/mol

row,Sequence,relative binding free energy
1,TAGTTCACGTGGTAAA,0.17 kcal/mol
2,TGGGGCACGTGTTTCA,-0.06 kcal/mol
3,TCGTTCACGTGGAATG,0.24 kcal/mol
4,GTAGTCACGTGGTAGC,0.16 kcal/mol
5,GTAATCACGTGTGACT,0.27 kcal/mol
6,TATTACACGTGAAGGT,0.23 kcal/mol
7,TATAGCACGTGGTCAT,-0.2 kcal/mol
8,CGAAGCACGTGGTGGG,-0.2 kcal/mol
9,TCAATCACGTGTGGGG,0.17 kcal/mol
10,ATGGTCACGTGCAGTT,-0.05 kcal/mol
11,ATTGTCACGTGCGATT,0.1 kcal/mol
12,GAGAGCACGTGAGGTC,0.24 kcal/mol
13,TCGGGCACGTGGAATT,0 kcal/mol
14,TGGTGCACGTGCTTGA,-0.05 kcal/mol
15,TCTGACACGTGTTTGA,-0.03 kcal/mol
16,TTTTTCACGTGCTTAG,0.27 kcal/mol
17,TGATTCACGTGAATCG,0.45 kcal/mol
18,TTCAGCACGTGTGAGG,-0.02 kcal/mol
19,ACGTTCACGTGAGTAG,0.37 kcal/mol
20,AAGGTCACGTGGTCTG,-0.06 kcal/mol
21,TTGTTCACGTGACTAT,0.21 kcal/mol
22,TGATTCACGTGGGGCG,0.21 kcal/mol
23,GACTTCACGTGGATGG,0.4 kcal/mol
24,GAGAACACGTGAGTGT,0.29 kcal/mol
25,TCGGACACGTGTGGGT,0.12 kcal/mol

row,Sequence,relative binding free energy
1,GGGTCCACGTGAGTTT,0.33 kcal/mol
2,TTCGTCACGTGGGAGG,-0.04 kcal/mol
3,TGATTCACGTGTTACT,0.34 kcal/mol
4,ATGTACACGTGGATCG,0.05 kcal/mol
5,AATAACACGTGGGATG,-0.07 kcal/mol
6,GTGTCCACGTGTATGG,0.03 kcal/mol
7,TGGGTCACGTGTGAGA,0.18 kcal/mol
8,GGAGACACGTGGGTGA,-0.03 kcal/mol
9,AAGTTCACGTGTCGGA,0.33 kcal/mol
10,GTCATCACGTGGGGTG,0.05 kcal/mol
11,GGTTACACGTGGCCTG,0.2 kcal/mol
12,TTGTTCACGTGGATGG,0.3 kcal/mol
13,GGTTCCACGTGGTCGG,-0.04 kcal/mol
14,GGGAACACGTGGTTTG,0.06 kcal/mol
15,ATAAACACGTGGGTGC,-0.04 kcal/mol
16,GTTCTCACGTGATCTG,0.45 kcal/mol
17,CGTGGCACGTGACGTG,-0.09 kcal/mol
18,TGGCACACGTGAGTGC,0.25 kcal/mol
19,TCGGTCACGTGGGGCT,-0.16 kcal/mol
20,TTTGGCACGTGCTTGC,-0.2 kcal/mol
21,GTATTCACGTGTTTGG,0.28 kcal/mol
22,GTTAGCACGTGTCAGT,-0.01 kcal/mol
23,GTTTTCACGTGCAAGT,0.31 kcal/mol
24,GGAGACACGTGGTCAG,-0.02 kcal/mol
25,GTCTGCACGTGGGTTA,-0.12 kcal/mol

row,Sequence,relative binding free energy
1,TGGATCACGTGTGTCA,0.25 kcal/mol
2,GATGGCACGTGCGTTA,-0.02 kcal/mol
3,TTTATCACGTGTGCCT,0.13 kcal/mol
4,CTGGCCACGTGTTGTT,-0.12 kcal/mol
5,ATGTGCACGTGGATTT,0.12 kcal/mol
6,ATTATCACGTGTAAAG,0.26 kcal/mol
7,TTTACCACGTGCTGGT,0.02 kcal/mol
8,TTTCTCACGTGGTAGA,0.2 kcal/mol
9,TATGGCACGTGTTAGC,-0.01 kcal/mol
10,GCACGCACGTGGTGGG,-0.18 kcal/mol
11,GGGCGCACGTGAAGCG,0.19 kcal/mol
12,GTGAACACGTGGCTGG,0.18 kcal/mol
13,CGCGTCACGTGGATTG,0.15 kcal/mol
14,TGTTACACGTGGCAAG,0.07 kcal/mol
15,TTGTACACGTGGCCGG,0 kcal/mol
16,AAAATCACGTGGTGTT,0.07 kcal/mol
17,GTGCGCACGTGTAGTA,0.02 kcal/mol
18,GGATCCACGTGTGGGC,0.18 kcal/mol
19,AGGTTCACGTGTCAGG,0.23 kcal/mol
20,AGTGGCACGTGGCATA,-0.21 kcal/mol
21,ATATTCACGTGATTAG,0.32 kcal/mol
